Assay results from PubChem BioAssay AID1460 (National Center for Advancing Translational Sciences (NCATS), 2008).
The whole screen tested about 270,000 compounds, of which about 5,800 (2.1%) were called active. This list was built around the results that the source calls inconclusive (neither active nor inactive); the mix of calls is not that of the screen. Calls follow the shape of the dose curve; as a rule, active = well fitted inhibition curve with a large enough effect; inconclusive = small, poorly fitted or top-dose-only effect; inactive = flat fitted curve, though single readings scatter. Potencies of inconclusive entries are doubtful fits and often do not repeat.

target: Microtubule-associated protein tau (Homo sapiens) (UniProt P10636); assay: qHTS for Inhibitors of Tau Fibril Formation, Thioflavin T Binding; settings: recombinant tau K18 P301L (four-repeat tau fragment), heparin-induced fibrillization, ThT fluorescence; series mostly up to 57.4 µM; also: nearly all actives have a fitted effect of over 55% in size
Chain of UniProt P10636 (P10636 whole entry, looked up, the tested form may be a part): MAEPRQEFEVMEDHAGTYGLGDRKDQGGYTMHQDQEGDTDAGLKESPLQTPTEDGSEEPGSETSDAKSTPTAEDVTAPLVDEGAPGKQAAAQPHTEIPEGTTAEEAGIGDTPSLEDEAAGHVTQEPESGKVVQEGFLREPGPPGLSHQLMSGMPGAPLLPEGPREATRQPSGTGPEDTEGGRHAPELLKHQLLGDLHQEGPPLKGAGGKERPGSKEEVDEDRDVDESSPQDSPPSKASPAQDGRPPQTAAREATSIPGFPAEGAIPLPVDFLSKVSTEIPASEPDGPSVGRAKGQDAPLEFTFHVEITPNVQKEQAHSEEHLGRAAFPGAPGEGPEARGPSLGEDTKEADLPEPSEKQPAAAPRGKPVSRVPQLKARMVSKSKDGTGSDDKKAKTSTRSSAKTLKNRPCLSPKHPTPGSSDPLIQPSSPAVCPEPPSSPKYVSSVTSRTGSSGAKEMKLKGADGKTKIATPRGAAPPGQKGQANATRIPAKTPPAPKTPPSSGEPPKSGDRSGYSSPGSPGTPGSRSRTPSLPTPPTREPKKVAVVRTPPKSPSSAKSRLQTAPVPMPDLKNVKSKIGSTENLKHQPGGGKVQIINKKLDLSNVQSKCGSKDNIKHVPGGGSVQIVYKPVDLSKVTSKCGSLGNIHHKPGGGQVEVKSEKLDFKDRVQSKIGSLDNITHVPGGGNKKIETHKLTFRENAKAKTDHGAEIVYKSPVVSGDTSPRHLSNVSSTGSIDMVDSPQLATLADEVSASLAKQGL
Outline: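 Aggregation was driven by heparin (20 uM final) acting on recombinant tau […] bearing P301L in 100 mM sodium acetate pH 7; fibrils were detected with Thioflavin T.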
Potency is read from the fitted curve at half-maximal effect; tags tell the direction and shape of the fitted curve.

Row | Compound | Potency
1 | Cc1cc2c(cc3c(SCC(=O)Nc4ccc(Cl)cc4F)nncn32)o1 | inactive
2 | CC(C)CNC(=O)COC(=O)c1c2c(nc3ccccc13)/C(=C/c1cccs1)CC2 | inconclusive: 6.31 µM [inhibitor, partial curve]
3 | Cc1ccc(Nc2c([N+](=O)[O-])c(=O)n(C)c3ccccc23)cc1C | inconclusive: 17.8 µM [inhibitor, partial curve]
4 | O=C(CCc1nnc(CCCCc2ccccc2)o1)NCCN1CCOC1=O | inconclusive: 15.8 µM [inhibitor, partial curve]
5 | COc1ccc(C2CN=NC23CCc2ccccc2C3=O)cc1 (stereo not drawn) | inconclusive: 35.5 µM [inhibitor, single point]
6 | O=C(NCCNc1ccc([N+](=O)[O-])cc1C(F)(F)F)c1cccc(F)c1 | inconclusive: 15.8 µM [inhibitor, partial curve]
7 | COc1cc([N+](=O)[O-])ccc1NC(=S)N1CCN(c2ccccn2)CC1 | inconclusive: 11.2 µM [inhibitor, partial curve, poor fit]
8 | CO/N=C/c1ccc(N2CCCC2)c([N+](=O)[O-])c1 | inconclusive: 25.1 µM [inhibitor, partial curve]
9 | COc1cc(O)c(CCO)c2c1C(=O)C[C@@H](C)O2 | inactive
10 | O=C1CC(Nc2ccc(N3CCOCC3)cc2)C(=O)N1c1ccccc1F (stereo not drawn) | active: 14.1 µM
11 | O=c1ccc2cc(S(=O)(=O)Nc3ccc(OC(F)(F)F)cc3)ccc2[nH]1 | inconclusive: 28.2 µM [inhibitor, partial curve]
12 | Cc1cc(C)n(-c2nc(SCCN(C)C)c3c4c(sc3n2)CCCC4)n1 | inconclusive: 15.8 µM [inhibitor, partial curve]
13 | CN=C(c1ccco1)n1c(=S)nc(-c2ccco2)n(C)c1=S | active: 28.2 µM
14 | COc1ccccc1Nc1nc(NCCC(C)C)nc(N)c1[N+](=O)[O-] | inconclusive: 25.1 µM [inhibitor, partial curve]
15 | CCOC(=O)c1sc(Nc2ccc(OCC)cc2)nc1C | inconclusive: 3.98 µM [inhibitor, full curve]
16 | COc1ccc(O)c(C(=O)c2coc(=N)c(C(=O)Nc3ccc(SC(F)F)cc3)c2)c1 | inconclusive: 20 µM [inhibitor, partial curve]
17 | O=C(COc1ccccc1F)Nc1ccc(OCc2cc(=O)n3ccccc3n2)cc1 | inconclusive: 0.398 µM [inhibitor, full curve]
18 | COC(=O)[C@@H]1CC[C@H](C)[C@@H](c2ccc(C)cc2)N1C(=O)c1ccc(/C=N/O[C@@H](C)c2cn([C@H](CO)Cc3ccccc3)nn2)cc1 | inconclusive: 10 µM [inhibitor, partial curve]
19 | Cc1ccc(NC2CC(=O)N(c3ccc(C)cc3)C2=O)cc1 (stereo not drawn) | inconclusive: 17.8 µM [inhibitor, partial curve]
20 | COc1cccc(N2CCN(C3CC(=O)N(c4ccc(Cl)c(Cl)c4)C3=O)CC2)c1 (stereo not drawn) | inconclusive: 14.1 µM [inhibitor, partial curve, poor fit]
21 | COc1cccc(/C=C2\N=C(SC)SC2=O)c1OC | inconclusive: 12.6 µM [inhibitor, partial curve]
22 | Cc1ccc(Nc2ccc(C(=O)O)cc2N)cc1 | inconclusive: 20 µM [inhibitor, single point]
23 | COCCNC(=O)c1c(N)n(/N=C/c2cccs2)c2nc3ccccc3nc12 | inconclusive: 39.8 µM [inhibitor, single point]

Row | Compound | Potency
24 | CC(=O)Oc1c(C)cc(Cl)cc1C(=O)Nc1ccc([N+](=O)[O-])cc1Cl | active: 2.82 µM
25 | O=C(Cn1c(=O)nc(-c2ccccc2F)c2cc(Cl)ccc21)NCCCc1ccccc1 | inconclusive: 17.8 µM [inhibitor, partial curve]
26 | CCOC(=O)c1cccc(NC(=O)COc2ccc([N+](=O)[O-])cc2)c1 | inconclusive: 11.2 µM [inhibitor, partial curve]
27 | Cc1cc2c(c(=O)n1Cc1ccco1)C(c1cccnc1)C(C#N)=C(N)O2 (stereo not drawn) | inactive
28 | O=C(COc1ccc(F)cc1)NCc1ccc2c(c1)CCN2C(=O)c1ccccc1 | inactive
29 | C=CC(C)N1C(=O)S/C(=C\c2ccc(N3CCOCC3)cc2C)C1=O (stereo not drawn) | inconclusive: 6.31 µM [inhibitor, partial curve]
30 | COc1cc(-c2ncc3ccccn23)cc(OC)c1OC | inconclusive: 35.5 µM [inhibitor, partial curve]
31 | Cc1cnc(NC(=O)Cc2c[nH]c3ccccc23)s1 | inactive
32 | COc1ccccc1C1CCN(C(=O)c2cnn(-c3ccccc3)c2C)CC1 | inconclusive: 22.4 µM [inhibitor, partial curve, poor fit]
33 | COc1cc(/C=C2\SC(=Nc3cccnc3)NC2=O)cc(OC)c1OC | inconclusive: 17.8 µM [inhibitor, partial curve]
34 | COc1cc(/C=N/NC(=O)c2ccc(-c3ccccc3)cc2)cc(OC)c1OC | inconclusive: 7.94 µM [activator, full curve, poor fit]
35 | COc1cccc(Cn2c(-c3nonc3NC(C)=O)nc3ccccc32)c1 | inconclusive: 5.01 µM [inhibitor, full curve]
36 | Cc1nnc(N/N=C/c2cc(C)n(-c3ccc(F)cc3)c2C)n1N | inconclusive: 15.8 µM [inhibitor, partial curve]
37 | Cc1ccc2nc(Nc3nc(C)cc(-c4ccccc4)n3)[nH]c(=O)c2c1 | inconclusive: 3.55 µM [inhibitor, full curve]
38 | CCOC(=O)c1ccc(NC(=O)COC)cc1 | inactive
39 | CCc1ccc(OCC(=O)Nc2ncn[nH]2)c(Br)c1 | inactive
40 | COc1cc(C(=O)NC(=S)Nc2ccc3c(c2)C(=O)N(C)C3=O)cc(OC)c1OC | inconclusive: 35.5 µM [inhibitor, single point]
41 | Cc1cccc(CC(=O)N2CCN=C2SCc2ccc([N+](=O)[O-])cc2)c1 | inconclusive: 22.4 µM [inhibitor, single point]
42 | c1ccc2c(Nc3nc(N4CCOCC4)c4ccccc4n3)cccc2c1 | inconclusive: 11.2 µM [inhibitor, partial curve]
43 | O=C(NCCc1c[nH]c2ccccc12)C1CCC(Cn2c(=S)[nH]c3ccccc3c2=O)CC1 (stereo not drawn) | inconclusive: 35.5 µM [inhibitor, single point]
44 | COc1ccc(NC(=O)Nc2ccc3nsnc3c2)cc1 | inconclusive: 20 µM [inhibitor, partial curve]
45 | O=C(NCc1ccccn1)C(=O)Nc1nc(C23CC4CC(CC(C4)C2)C3)cs1 | inconclusive: 39.8 µM [inhibitor, single point]
46 | CC(=O)Nc1ccc(N2CCN(C(C)=O)CC2)cc1 | inconclusive: 17.8 µM [inhibitor, partial curve, poor fit]

Row | Compound | Potency
47 | CCC1CN(C(=O)N2CCC(C(=O)N3CCN(c4ccccc4F)CC3)CC2)c2ccccc2O1 (stereo not drawn) | inconclusive: 39.8 µM [inhibitor, single point]
48 | CC1C(=O)OC2CC34C5CC(C(C)(C)C)C36C(OC(=O)C6O)OC4(C(=O)O5)C21O (stereo not drawn) | inactive
49 | CCOc1c(Cl)cc(C(=O)N(Cc2ccc(N(C)C)cc2)Cc2ccco2)cc1Cl | inconclusive: 0.501 µM [inhibitor, full curve, poor fit]
50 | Cc1cc(-c2ccccc2)nc(SCC(=O)N2CCCC2)n1 | inactive
51 | Cc1cccc(CNC(=O)CCCN2C(=O)CCn3nc(-c4cccn4C)cc32)c1 | inactive
52 | CC(=O)c1ccc(S(=O)(=O)N2Cc3ccccc3CC2C(=O)O)cc1 (stereo not drawn) | inactive
53 | COc1ccc(N2CCN(Cc3nnc(-c4ccc5c(c4)OCO5)o3)CC2)cc1 | inconclusive: 7.94 µM [inhibitor, full curve]
54 | Cc1nn(Cc2ccc(Cl)cc2)c(C)c1NC(=O)c1cc(-c2ccc3c(c2)OCO3)on1 | inactive
55 | CCc1cccc(C)c1Nc1c(-c2ccsc2)nc2ncccn12 | inconclusive: 20 µM [inhibitor, partial curve]
56 | Cc1ccc(C(=O)N/C(=C\c2ccc(Br)cc2)c2nc(=S)[nH][nH]2)cc1 | inconclusive: 22.4 µM [inhibitor, partial curve, poor fit]
57 | Cc1ccnc(NC(=O)c2ccc3c(c2)OCO3)c1 | inactive
58 | CCS(=O)(=O)N1CCc2cc(C(=O)Nc3cccc(C(C)=O)c3)ccc21 | inconclusive: 15.8 µM [inhibitor, single point]
59 | Cc1ccccc1C(=O)c1c[nH]c(C(=O)NCCc2ccccn2)c1 | inactive
60 | CC(=O)c1ccc(NC(=O)CSc2cn(CC(=O)N(C(C)C)C(C)C)c3ccccc23)cc1 | inactive
61 | Cc1ccccc1OCc1nc2ccccc2n1Cc1ccccc1Cl | inconclusive: 20 µM [inhibitor, partial curve]
62 | CCCCNC(=O)COC(=O)c1cc(S(=O)(=O)N2CCCCCC2)ccc1OC | inactive
63 | Cc1cc(N2CCOCC2)ccc1/C=C1/SC(=O)NC1=O | active: 10 µM
64 | COc1ccc(N(C(=O)c2ccccc2C)S(=O)(=O)c2cccs2)cc1 | inactive
65 | COc1ccc(C2=NS(=O)(=O)N(C)C(C(=O)N(C)Cc3ccccc3)=C2)cc1OC | inconclusive: 14.1 µM [inhibitor, partial curve]
66 | CCCn1cnc2cc(NCc3ccccc3OCC)ccc21 | inconclusive: 28.2 µM [inhibitor, single point]
67 | CCn1c(C(=O)NCc2ccccc2Br)cc2oc3ccccc3c21 | inactive
68 | Cc1c(NC(=O)c2ccc(N3C(=O)C4C5C=CC(C5)C4C3=O)cc2)c(=O)n(-c2ccccc2)n1C (stereo not drawn) | inconclusive: 1.12 µM [inhibitor, full curve]
